The data scatter; read single values as rough.
B1: library; a variant is named by its letters at X, in order (parent)
chain: EASNCFAIRHFENKFAVETLICXXXXXXXX

Variants of: B1
Experiment: amyloid nucleation score relative to library mode (yeast Sup35 reporter selection) (log enrichment difference); higher = more amyloid nucleation; sequences are the first 22 residues of the Bri2 peptide extended by up to 12 random residues
Settings: random library (experiment): 1;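 active = nucleation score significantly above 0 at FDR 0.05; inactive = not significantly above 0 or absent from output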
Experimental: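 Random C-terminal extensions of the 22-aa Bri2 peptide by 12 NNK codons; premature stops give shorter extensions. Peptides were fused to the Sup35 nucleation domain in S. cerevisiae [psi-pin-] and selected on -ADE-URA plates for 7 d at 30 °C. The nucleation score is log(output/input), centred to the mode of each of 3 independent libraries (1 input, 3 technical output replicates), with duplicates merged. Sequences absent from the output ('random_non_nuc') were imputed with the library mode value, so they are given as censored (<). Nucleators are scores significantly >0 at FDR 0.05.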
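Note: [psi-pin-] Saccharomyces cerevisiae expressing SupN fusions, induced by 100 µM Cu2SO4, selected 7 d at 30 °C without adenine and uracil, scored by deep sequencing of output versus input.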

| Variant | amyloid nucleation score |
| --- | --- |
| LVAIDWMR | inactive |
| WVEGERLD | 1.78 |
| VVERSRKR | 5.03 |
| YVGCFEGL | 7.16 |
| WVGSSRPV | 1.3 |
| TVGVVCTN | inactive |
| AVKDNGAV | inactive |
| AVKMWLNE | -0.0664 |
| DVLANNYA | inactive |
| TVLGSITL | 7.53 |
| AVLTHSAE | inactive |
| AVMMHRRN | inactive |
| VVPMDMIW | 4.58 |
| VVRAVARE | inactive |
| KVRKDSTV | inactive |
| NVRLRVKL | 4.79 |
| VVRMALHN | inactive |
| GVRQNGCK | inactive |

| Variant | amyloid nucleation score |
| --- | --- |
| LVSCTMVL | inactive |
| MVSFSMAE | -0.179 |
| WVSVLQRE | inactive |
| KVTGMAGT | inactive |
| AVWSASDV | 5.28 |
| CVWVSWCT | 6.07 |
| EVYERRQA | -0.219 |
| YWEGFEWC | inactive |
| WWEYRTAP | inactive |
| LWKVPGLL | inactive |
| AWLSEDRA | inactive |
| EWPVWWYS | 4.12 |
| VWTATWDA | inactive |
| MYAGLLGR | 4.27 |
| LYSSPSVE | inactive |
| GYSVRSSS | -0.309 |
| CYVDTSRR | 8.57 |
| KYYAHIVS | inactive |

Same assay, conditions: random library (experiment): 2

| Variant | amyloid nucleation score |
| --- | --- |
| CAAWYGDD | 9.01 |
| NALCRSMN | inactive |
| WALFNYPV | inactive |
| VAWTYQWL | 2.91 |
| PCDFMCWF | 8.93 |
| ACFCYYMY | 4.05 |
| HCGLYAFC | 6.11 |
| YCRCFYAL | 6.16 |
| VCTWRFFY | inactive |
| NDFHGGWG | 5.8 |
| HDGTVRRT | 0.18 |
| YDLFVTLF | inactive |
| FDLYILPE | -0.0862 |
| IDNLLVLV | inactive |
| WDNSRQAC | 0 |
| NDSHRFCS | inactive |
| EDSWIYIY | 3.75 |
| IDVALPFD | inactive |
| LEFVSMKL | -0.215 |
| AEMMSRCL | inactive |
| LFCFVNVD | 8.23 |
| FFCSSCWF | 7.86 |
| KFDNYDMW | 6.15 |
| LFIKGETG | 2.66 |
| LFKFDNVD | 4.93 |

| Variant | amyloid nucleation score |
| --- | --- |
| FFLCETLP | 3.45 |
| YFLFFLRR | inactive |
| LFLGLYNV | -0.663 |
| IFLWDYMI | inactive |
| VFPNSGNL | 7.91 |
| YFSRKLLS | -0.779 |
| MFTVSSVL | inactive |
| RFVGHVRV | inactive |
| PFVTTVIY | inactive |
| VGFSEGRR | inactive |
| LGINGSCR | 7.75 |
| CGLITYYL | 8.28 |
| YGQICYNY | 7.8 |
| IGRESGQK | inactive |
| NGRKRHSK | 1.05 |
| GGSSVKDL | inactive |
| DGTLLLVF | inactive |
| NGTMFHGF | 7.66 |
| GGYCGVCQ | inactive |
| LGYLRYRL | inactive |
| YGYLSATR | 1.18 |
| IHGSGNAH | 2.31 |
| KHGTETWC | -0.293 |
| VHLLDQNS | 6.75 |
| CHMVCFVW | 2.81 |

| Variant | amyloid nucleation score |
| --- | --- |
| VHNFQRSV | inactive |
| GHWTLLLL | inactive |
| VIIIMRTW | inactive |
| CILNMSCV | 7.49 |
| DINVVSLN | 7.28 |
| VIPREDLF | 6.92 |
| AIRVSTVF | inactive |
| IISPRSAE | 7.05 |
| CKCRKWRF | 5.03 |
| WKIMVRVF | inactive |
| RKLSLILY | inactive |
| HKLSVYFS | inactive |
| EKPTRAVL | inactive |
| DKQSYYPS | inactive |
| RKSYNCFC | inactive |
| FKYFRLKA | inactive |
| VLDCTIQY | 5.37 |
| NLDLLCVV | inactive |
| VLFATHAR | inactive |
| HLILTLYY | -0.166 |
| ILLGLKYI | -0.513 |
| LLLISGNV | inactive |
| VLLMCIWA | inactive |
| MLLNLQRI | inactive |
| ILMMSDMV | inactive |

| Variant | amyloid nucleation score |
| --- | --- |
| VLNNVVDC | 2.8 |
| NLQHNQKQ | 4.21 |
| VLRMFVHC | inactive |
| ELSFCLFV | inactive |
| VLSGLLCC | 5.9 |
| LLTFMRAG | inactive |
| LLTGYMSV | 3.87 |
| ILTYAYST | -0.104 |
| DLVYSNMW | 3.29 |
| YLYYLLVV | inactive |
| CMDVCTID | 7.8 |
| LMFDEWSN | inactive |
| VMFLLNAR | inactive |
| CMRGLVVV | 3.8 |
| WMVKFEPD | -0.255 |
| LMVKSGLF | inactive |
| LMVSFSNN | 4.81 |
| LMWYCSRR | 3.23 |
| PMYSCKVC | 4.67 |
| TNCLCRRD | 8.14 |
| LNEDAKQR | 1.59 |
| GNGILSEF | inactive |
| RNLGVFPF | 6.18 |
| MNTVRFLV | inactive |
| VNVRVNYV | 0.574 |
